In all, about 110,000 compounds went through this assay and about 230 (0.21%) showed an effect of 50% or more. Some of the results follow.
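Also: 30 min substrate incubation versus DMSO and 10 µM JCP410 controls.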

In the assay the target is DPAP1 (Plasmodium falciparum, UniProt Q8IIJ9). The assay can be described thus: primary screen, percent inhibition; read by cleavage of a fluorogenic dipeptide substrate; higher = more effect of the substance. Details: species or system P. falciparum D10 trophozoite lysates; single well.
Sequence of DPAP1 (Q8IIJ9 whole entry, looked up): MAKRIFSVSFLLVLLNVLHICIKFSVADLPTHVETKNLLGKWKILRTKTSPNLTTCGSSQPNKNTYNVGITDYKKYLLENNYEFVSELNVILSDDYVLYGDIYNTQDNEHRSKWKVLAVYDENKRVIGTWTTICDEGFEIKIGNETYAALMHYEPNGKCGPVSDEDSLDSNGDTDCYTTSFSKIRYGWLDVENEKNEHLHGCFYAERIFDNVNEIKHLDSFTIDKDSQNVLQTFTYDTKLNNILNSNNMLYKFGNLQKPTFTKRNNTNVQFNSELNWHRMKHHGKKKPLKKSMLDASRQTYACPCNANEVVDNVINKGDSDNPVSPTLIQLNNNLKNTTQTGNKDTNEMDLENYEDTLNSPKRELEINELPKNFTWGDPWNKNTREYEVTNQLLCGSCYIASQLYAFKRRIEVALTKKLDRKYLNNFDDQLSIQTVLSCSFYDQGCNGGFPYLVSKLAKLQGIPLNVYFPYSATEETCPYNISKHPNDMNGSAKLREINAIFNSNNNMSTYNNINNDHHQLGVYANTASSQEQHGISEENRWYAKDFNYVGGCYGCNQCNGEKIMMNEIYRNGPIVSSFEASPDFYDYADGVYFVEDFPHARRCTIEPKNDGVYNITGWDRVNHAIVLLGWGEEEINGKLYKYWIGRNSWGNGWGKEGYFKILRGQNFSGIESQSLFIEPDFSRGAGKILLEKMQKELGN
Consider `Cc1ccc(CN2CCN(CC(=O)NC3CCCCC3C)C2=O)cc1` (stereo not shown), for which the “% Inhibition @ 10 uM” value is on record as -4.16%. `COC(=O)C1=CN(C(C)C)C=C(C(=O)OC)C1c1cccs1`: the “% Inhibition @ 10 uM” value turned out to be 4.99%. Turning to `Cc1ccc2nc(NC(=O)Cn3cccc3)sc2c1`, the “% Inhibition @ 10 uM” value is -0.692%. Next, `COc1ccc2ccc(OC)c(/C=C3/NC(=O)NC3=O)c2c1`: 3.8%; `Nc1nc2cc3sc(N)nc3cc2s1`: -4.11%. As for `COc1ccc(Br)cc1C1N(c2cc(C)on2)C(=O)C2CCCN21` (stereo not shown), the “% Inhibition @ 10 uM” value turned out to be 2.9%. Turning to `O=S(=O)(c1cccc(-c2nc3ccccc3s2)c1)N1CCCCC1`, the “% Inhibition @ 10 uM” value is -3.88%. Turning to `COc1ccccc1/C=C/C(=O)c1ccc2ccccc2c1`, the “% Inhibition @ 10 uM” value is recorded as 19.4%. `CCC(Cc1cccc(O)c1)C(=O)O` (stereo not shown): the “% Inhibition @ 10 uM” value came to 5.56%. The same measure for `COc1ccc(Cl)cc1NC(=O)c1c(Cl)c(C)nn1C`: 2.01%; for `COc1ccc(S(=O)(=O)Cc2ccc(C(=O)N3CCc4ccccc4C3)o2)cc1`: 0.458%. On to `CCC1CCCCN1C(=O)c1cc2c(-c3ccc(OC)c(OC)c3)nn(C)c2s1` (stereo not shown), for which the “% Inhibition @ 10 uM” value is -0.499%. For `CC(C)CC(=O)/N=C1\SC2CS(=O)(=O)CC2N1Cc1ccccc1Cl` (stereo not shown), the “% Inhibition @ 10 uM” value came to 0.558%.

With `CC1(C)CC(=O)C2=C(C1)OC(N)=C(C#N)C2c1ccc2ccccc2c1` (stereo not shown), the “% Inhibition @ 10 uM” value is -5.65%.

For the compound `N/C=C1\C(=O)NC(=O)N(c2ccc(C34CC5CC(CC(C5)C3)C4)cc2)C1=O`, the “% Inhibition @ 10 uM” value is 7.04%. Consider `COc1ccccc1N1C(=O)CC(N2CCN(c3ccc(Cl)cc3)CC2)C1=O` (stereo not shown), for which the “% Inhibition @ 10 uM” value is reported as -9.66%. On to `COc1ccc(C2N(C(=O)c3ccccc3)CCN2S(=O)(=O)c2ccccc2)cc1` (stereo not shown), for which the “% Inhibition @ 10 uM” value came to 6.27%. For the compound `CCC1(c2ccccc2)OC(=O)C2C3CCCCC3=C3CCCCC3C21` (stereo not shown), the “% Inhibition @ 10 uM” value turned out to be 0.937%. The same measure for `C=CCNC(=O)C1CC=CCC1C(=O)NCc1ccccc1` (stereo not shown): -0.216%. On to `Cc1cccnc1NC(=O)Nc1ccc(F)cc1`, for which the “% Inhibition @ 10 uM” value is recorded as 2.38%.

For the compound `Fc1ccc(F)c(CN2CCN(Cc3ccccc3)CC2)c1`, the “% Inhibition @ 10 uM” value is -1.41%.

Consider `CC(C)CN1C(=O)c2ccccc2C(C(=O)NCc2ccc(F)cc2)C1c1cccs1` (stereo not shown), for which the “% Inhibition @ 10 uM” value is listed as 3.01%. For `Cc1ccc(-c2ccc(=O)n(CC(=O)N3CCN(C)CC3)n2)cc1`, the “% Inhibition @ 10 uM” value is 0.514%.

Turning to `Oc1cccc(CNc2ccc(F)c(Cl)c2)c1`, the “% Inhibition @ 10 uM” value turned out to be 1.08%. `O=C(Nc1ccccn1)C1CCN(c2ncnc3c2nc2n3CCCCC2)CC1`: the “% Inhibition @ 10 uM” value amounted to 4.61%. In the case of `COc1cc2c(cc1OC)C(C)N(C(=O)Cn1ncc3c4ccccc4nc-3c1O)CC2` (stereo not shown), the “% Inhibition @ 10 uM” value is given as 5.7%. Consider `COc1ccc(N2CCN(Cc3ccc([N+](=O)[O-])cc3)CC2)cc1`, for which the “% Inhibition @ 10 uM” value is 2.47%.

Regarding `Cc1ccc2c(c1)Cc1c(O)nc(-c3ccc(F)cc3)nc1O2`, the “% Inhibition @ 10 uM” value is listed as -4.68%. As to `CCOc1ccc(/C=C2\SC(N3CCN(Cc4ccccc4)CC3)=NC2=O)cc1OCC`, the “% Inhibition @ 10 uM” value is given as -1.81%. For `O=S(=O)(NCc1ccc2c(c1)OCO2)c1cccc(F)c1`, the “% Inhibition @ 10 uM” value is reported as -6.65%. Next, `C=Cc1ccc(Cn2c(C(=O)O)c(CNCc3cc(OC)c(OC)c(OC)c3)c3ccccc32)cc1`: -1.38%; `CCCS(=O)(=O)N1CCCC(C(=O)NCCN2CCOCC2)C1` (stereo not shown): -7.35%. The same measure for `CCS(=O)(=O)N1CCC2(CC1)OC(=O)C(C)=C2C(=O)NCC1CCCO1` (stereo not shown): 0.185%; for `Cc1ccsc1/C=C1/NC(=O)N(Cc2ccccc2F)C1=O`: 4.85%. Regarding `Cc1cc2c(C)cc(=O)oc2c2c1NCCC2`, the “% Inhibition @ 10 uM” value was -2.91%. With `Cc1cccc(CN2C(=O)N/C(=C/c3cccs3)C2=O)c1`, the “% Inhibition @ 10 uM” value is listed as -7.83%.

For `COc1cccc(-n2c(SCC(=O)NCCc3ccccc3)nc3nnc(C)c-3c2N)c1`, the “% Inhibition @ 10 uM” value is reported as 4.35%.

In the case of `CCn1c(SCC(N)=O)nc2c(c1=O)SCC2`, the “% Inhibition @ 10 uM” value came to 2.54%.

Regarding `CC(C)c1ccc(NC(=O)c2cccc(F)c2)cc1`, the “% Inhibition @ 10 uM” value is on record as -0.636%. The same measure for `N#CC1=C(N)Oc2[nH]nc(-c3ccc(F)cc3)c2C1c1ccncc1` (stereo not shown): 5.48%; for `COC(=O)C1=C(C)OC(N)=C(C#N)C12C(=O)Nc1ccccc12` (stereo not shown): -1.37%.

As to `Cc1cccc(C)c1N1C(=O)C(Cl)=C(N2CCCCCC2)C1=O`, the “% Inhibition @ 10 uM” value came to 3.72%. Take `CCN1CCC2(CC1)OC(=O)C(C)=C2C(=O)NCCc1ccccc1`: the “% Inhibition @ 10 uM” value turned out to be 0.297%.

Consider `CCOc1ccc(N(CC(=O)Nc2ccccc2C(=O)O)S(C)(=O)=O)cc1`, for which the “% Inhibition @ 10 uM” value came to 6.69%. Turning to `N#Cc1ccccc1CN1C(=O)S/C(=C/c2ccco2)C1=O`, the “% Inhibition @ 10 uM” value is reported as -6.16%. In the case of `CC(NC(=O)c1cccc(C(=O)NC(C)c2ccccc2)c1)c1ccccc1` (stereo not shown), the “% Inhibition @ 10 uM” value is 0.331%.

Take `Cc1ccc(S(=O)(=O)c2nnn3c2nc(NCCCOC(C)C)c2sccc23)cc1`: the “% Inhibition @ 10 uM” value is -0.256%.

`COc1ccc(NC(=O)CN2C(=O)c3ccccc3S2(=O)=O)cc1Cl`: the “% Inhibition @ 10 uM” value is -3.77%. The same measure for `Cc1cccc(-n2nc3c(c2NC(=O)c2ccc4c(c2)OCO4)CS(=O)(=O)C3)c1C`: 2.65%; for `COc1ccc(-c2ccccc2)cc1NCC[C@@H](C)CCC=C(C)C`: 1.9%.

`CCOc1ccc(-c2cc(C(=O)NC(C)c3ccc4c(c3)OCCO4)[nH]n2)cc1` (stereo not shown): the “% Inhibition @ 10 uM” value worked out at 6.41%. As to `Cc1ccc(NC(=O)c2cc(S(=O)(=O)N3CCCCC3)c(Cl)cc2Cl)cc1`, the “% Inhibition @ 10 uM” value turned out to be 4.3%. On to `COc1cccc(CN2CCC(Cc3ccccc3)CC2)c1O`, for which the “% Inhibition @ 10 uM” value is -2.95%. As for `C=CCSc1nnc(Cc2c(C)[nH]c3ccccc23)o1`, the “% Inhibition @ 10 uM” value is reported as -0.958%. Take `CC1=CC(C)(C)N(S(=O)(=O)c2ccc(C)cc2)c2ccccc21`: the “% Inhibition @ 10 uM” value is given as -6.18%. Take `COc1ccc(S(=O)(=O)Nc2c(C)nn(Cc3c(F)cccc3Cl)c2C)cc1`: the “% Inhibition @ 10 uM” value is given as 1.96%.

As for `CCOc1ccc(NC(=O)C2CC(=O)N(C(=N)N)C(=N)S2)cc1` (stereo not shown), the “% Inhibition @ 10 uM” value is listed as -5.6%.

On to `CCOc1ccccc1-n1c(CN2CCC(O)CC2)nc2ccccc2c1=O`, for which the “% Inhibition @ 10 uM” value is recorded as 5.17%.

Take `O=C(NCCn1cccc1)c1cccc2ccccc12`: the “% Inhibition @ 10 uM” value is listed as -4.49%. Take `Cc1ccc2nc(NC(=O)C(CC(C)C)NS(=O)(=O)c3ccc4nc(C)sc4c3)sc2c1` (stereo not shown): the “% Inhibition @ 10 uM” value is -3.1%. The same measure for `CCN(CC)CCN(C)Cc1ccccc1`: 2.22%; for `CCN(Cc1ccccc1)C(=O)CSc1nc2nnc(C)c-2c(N)n1-c1cccc(C)c1`: -3.93%. With `CC1CCC(NCCCN2CCOCC2)C1` (stereo not shown), the “% Inhibition @ 10 uM” value was -3.42%. `CCOC(=O)C1=C(C)OC(N)=C(C#N)C1c1cccc(Cl)c1Cl` (stereo not shown): the “% Inhibition @ 10 uM” value is given as -0.197%.

The values are drawn from publication PMC6919601, “Identification of Plasmodium dipeptidyl aminopeptidase allosteric inhibitors by high throughput screening” (PLoS ONE, 2019).
